Laboratory results: PubChem BioAssay AID1508623 (National Center for Advancing Translational Sciences (NCATS), 2021)
The whole screen tested about 48,000 compounds, of which about 450 (0.94%) were called active. About 19% were inconclusive and are not listed. The call rests on the fitted dose curve; in most records, active means well fitted inhibition curve with a large enough effect; inconclusive means small, poorly fitted or top-dose-only effect; inactive means no such curve, though single readings can be large or run the other way. The list shows a part of the results.

experiment: Primary qHTS for Identification of Small Molecule Inhibitors of Huntingtin Promoter Activity; settings: HEK293 HTT promoter firefly luciferase reporter (activity 0% = vehicle and -100% = no light), 24 h; series mostly up to 57.5 µM; activity change, negative = inhibition: at the top concentration; further: nearly all actives have a fitted effect of over 50% in size
Method in brief: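 HEK293 Fluc reporter, 2,500 cells/well, 24 h pre-culture; cpds up to 57.5 uM final, 24 h 37 degrees C; Dual-Glo, 10 min RT; normalized vehicle = 0%, zero RLU = -100%.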

Which “activity change, negative = inhibition” value does the source give for COc1ccc(NC(=O)Cn2c(=O)n(Cc3ccccc3)c(=O)c3oc4ccccc4c32)cc1Cl here?
Its value is inactive: 5.97%.

For Cc1nc2c(C(=O)NCc3ccccc3Cl)cnn2c(C)c1Cc1ccccc1, which “activity change, negative = inhibition” value is on record?
Its value is inactive: 4.63%.

Which “activity change, negative = inhibition” value does the source give for Cn1cc(S(=O)(=O)N2CCCCC2)cc1C(=O)N1CCN(c2ccccc2F)CC1 here?
Its value is inactive: -16%.

With COc1cccc(-c2csc(-c3c(N)c(C(=O)c4ccccc4)n4ccccc34)n2)c1 as the compound, how does the “activity change, negative = inhibition” value read?
Its value is inactive: 4.6%.

Which “activity change, negative = inhibition” value does the source give for O=C(CSc1nc2c([nH]c3ccccc32)c(=O)n1-c1ccc(Cl)cc1)N1CCCCCC1 here?
The value was inactive: -5.99%.

Which “activity change, negative = inhibition” value does the source give for Cc1nc2n(c(=O)c1CCN1CCC(c3noc4cc(F)ccc34)CC1)CCC[C@H]2O here?
Its value is inactive: 4.06% [at 25.2 µM].

With CCOC(=O)c1ccccc1NC(=O)Cn1c(=O)n(CCCC(=O)NCc2ccc3c(c2)OCO3)c(=O)c2ccccc21 as the compound, how does the “activity change, negative = inhibition” value read?
Its value is inactive: -5.79%.

With CCCCOc1cc(C(=O)OCCN(CC)CC)ccc1N as the compound, how does the “activity change, negative = inhibition” value read?
Its value is inactive: -8.94%.

For CCc1ccc(-c2nc(CN3CCCC(C(=O)NCc4ccc(C)cc4)C3)c(C)o2)cc1 (stereo not given), which “activity change, negative = inhibition” value is on record?
The value was inactive: -5.18%.

For CN1CCN(N)CC1, which “activity change, negative = inhibition” value is on record?
The value was inactive: -0.385%.

For COc1ccc(-c2cc3nc(C)c(CCC(=O)Nc4cccc(C(F)(F)F)c4)c(C)n3n2)c(OC)c1, which “activity change, negative = inhibition” value is on record?
Its value is inactive: -22.7%.

For Cc1ccnc(NC(=O)c2c(C)oc3ncn(CC(C)C)c(=O)c23)c1, which “activity change, negative = inhibition” value is on record?
The value was inactive: 81.5%.

Which “activity change, negative = inhibition” value does the source give for Cc1ccc(CNC(=O)Nc2cn(CC(C)C)c(=O)c3ccccc23)cc1 here?
The value was inactive: -15.5%.

For CN(C(=O)Cn1cc(S(=O)(=O)N2CCN(c3ccccc3F)CC2)c2ccccc2c1=O)c1ccc(Cl)cc1, which “activity change, negative = inhibition” value is on record?
Its value is inactive: 0.758%.

With COCC(C)NC(=O)c1cnn2c(C(F)F)cc(-c3ccccc3)nc12 (stereo not given) as the compound, how does the “activity change, negative = inhibition” value read?
The value was inactive: -11.4%.

With Clc1ccc2nsnc2c1NC1=NCCN1 as the compound, how does the activity change, negative = inhibition read?
The activity change, negative = inhibition was “inactive”.

For Cc1cc(C)c(NC(=O)CN2c3ccccc3S(=O)(=O)c3ccccc32)c(C)c1, which “activity change, negative = inhibition” value is on record?
Its value is inactive: -29.2%.

With O=C(NCCCN1CCN(c2ccccc2F)CC1)c1cc2c(Cl)nc3ccccc3c2s1 as the compound, how does the “activity change, negative = inhibition” value read?
Its value is inactive: -21.3%.

For CCCCCOc1ccc(NC(=O)Cc2csc(C)n2)cc1, which “activity change, negative = inhibition” value is on record?
Its value is inactive: -6.48%.

With Cc1nnc(SCc2ccccc2Cl)c2cc3sccc3n12 as the compound, how does the “activity change, negative = inhibition” value read?
Its value is inactive: 28.4%.

For O=C(Nc1sc2c(c1C(=O)Nc1ccc(Cl)cc1)CCCC2)c1cccs1, which “activity change, negative = inhibition” value is on record?
Its value is inactive: -14.2%.

With Cc1cc(Nc2cc(N3CCN(C)CC3)nc(Sc3ccc(NC(=O)C4CC4)cc3)n2)n[nH]1 as the compound, how does the “activity change, negative = inhibition” value read?
The value was inactive: -8.35%.

With Cc1ccc(CN2COc3cc(C)c4c(oc(=O)c5ccccc54)c3C2)cc1 as the compound, how does the “activity change, negative = inhibition” value read?
The value was inactive: -9.33%.

Which “activity change, negative = inhibition” value does the source give for CCOc1ccc(NC(=O)c2cnn(-c3ccc(C)c(Cl)c3)c2C2CCNCC2)cc1 here?
Its value is inactive: -8.7%.

For Cc1ccc2[nH]c(C(=O)Nc3ccccc3)cc2c1, which “activity change, negative = inhibition” value is on record?
Its value is inactive: 23.1%.

Which “activity change, negative = inhibition” value does the source give for CCOc1cc(C2NC(=O)c3c(sc4c3CCN(C)C4)N2)ccc1OC(=O)c1ccccc1Cl (stereo not given) here?
The value was inactive: -30.7%.

With Cc1ccc(S(=O)(=O)CCC(=O)Nc2ccc(Br)cc2C)cc1 as the compound, how does the “activity change, negative = inhibition” value read?
Its value is inactive: -10.4%.

Which “activity change, negative = inhibition” value does the source give for COc1ccc(NC(=O)Cn2c(=O)cc(C)c3c(C)nn(-c4cccc(Cl)c4C)c32)cc1OC here?
The value was inactive: -18.7%.

Which “activity change, negative = inhibition” value does the source give for O=C(NC1CC(=O)N(c2ccc3c(c2)OCCO3)C1)c1c(F)cccc1Cl (stereo not given) here?
Its value is inactive: -11.7%.

With CCOC(=O)c1cc(-c2ccccc2)n(CC(=O)NC2CCC(C)CC2)c1C (stereo not given) as the compound, how does the “activity change, negative = inhibition” value read?
The value was inactive: -0.835%.

Which “activity change, negative = inhibition” value does the source give for COCCNc1oc(-c2ccc(COc3ccc(OC)cc3)o2)nc1C#N here?
The value was inactive: 8.59%.

Which “activity change, negative = inhibition” value does the source give for Cc1ccc(-c2nn(-c3ccc(F)cc3F)c3c2cnc2c(F)cccc23)cc1 here?
The value was inactive: -12.2%.

For CCc1ccc2oc(-c3cccc(NC(=O)c4cc5ccccc5o4)c3)nc2c1, which “activity change, negative = inhibition” value is on record?
The value was inactive: 40%.

For Cc1nc2c(C(=O)O)cnn2c(C)c1Cc1ccccc1, which “activity change, negative = inhibition” value is on record?
Its value is inactive: 4.44%.

For Cc1ccccc1C(=O)Nc1nc2nc(C)c(C)c(=O)n2[nH]1, which “activity change, negative = inhibition” value is on record?
Its value is inactive: -0.92%.

With CCCc1nn2c(=O)cc(COC(=O)c3ccc(NC(=O)CCc4ccccc4)cc3)nc2s1 as the compound, how does the “activity change, negative = inhibition” value read?
The value was inactive: -30.8%.

Which “activity change, negative = inhibition” value does the source give for Cc1ccc(C(=O)CSc2ncc3c(n2)-c2ccccc2N(Cc2ccc(Cl)cc2)S3(=O)=O)cc1 here?
Its value is inactive: -20%.

With CC(=O)Nc1nnc(S(N)(=O)=O)s1 as the compound, how does the “activity change, negative = inhibition” value read?
The value was inactive: -0.389%.

Which “activity change, negative = inhibition” value does the source give for CCCCOc1ccc(C(=O)Nc2ccc(F)cc2F)cc1 here?
Its value is inactive: -14.1%.

With CCCCOc1ccc(CNC(=O)c2ccc(-c3nc(CN4CCc5ccccc54)c(C)o3)cc2)cc1 as the compound, how does the “activity change, negative = inhibition” value read?
The value was inactive: -23.8%.

With CC(=O)Nc1c(I)cc(I)c(C(=O)O)c1I as the compound, how does the “activity change, negative = inhibition” value read?
Its value is inactive: -2%.

With Cc1cc2cc3c(C)cc(=O)oc3c(C)c2o1 as the compound, how does the “activity change, negative = inhibition” value read?
Its value is inactive: 3.54%.

Which “activity change, negative = inhibition” value does the source give for COc1cccc(NC(=O)c2sc3nc4n(c(=O)c3c2C)CCC4)c1 here?
The value was inactive: 80.1%.

For CC1=C(C(N)=O)C(c2ccc(C)cc2)n2nc(SCc3ccccc3F)nc2N1 (stereo not given), which “activity change, negative = inhibition” value is on record?
The value was inactive: -4.81%.

For CC(=O)Nc1ccccc1-c1nc2ccccc2n(CC(=O)c2ccc(Br)cc2)c1=O, which “activity change, negative = inhibition” value is on record?
Its value is inactive: -13.1%.

Which “activity change, negative = inhibition” value does the source give for COc1cccc(CNC(=O)CSc2nnc(C)c3c(C)n(-c4ccccc4)nc23)c1OC here?
The value was inactive: -3.54%.

For COC(=O)CNC(c1ccccc1)c1cc(Br)ccc1NC(=O)c1ccccc1 (stereo not given), which “activity change, negative = inhibition” value is on record?
Its value is inactive: -8.82%.

For COc1cccc(-n2cc(C(=O)Nc3cc(OC)c(OC)c(OC)c3)c3ccccc3c2=O)c1, which “activity change, negative = inhibition” value is on record?
The value was inactive: -6.04%.

For NC1=N[C@@]2(c3cc(NC(=O)c4ccc(F)cn4)ccc3F)COC[C@@H]2CS1, which “activity change, negative = inhibition” value is on record?
The value was inactive: -19.5%.

With CCc1cccc(C)c1NC(=O)C1CCN(c2nn3c(=O)cc(C)nc3s2)CC1 as the compound, how does the “activity change, negative = inhibition” value read?
The value was inactive: -11.8%.
